Positions count from the first letter of the chain named. No constants are given. Whether binding was seen depends on the method and setting. For some assays here: In cells and extracts the contact can be indirect. Some binding calls cover weakened binding; strength is not graded here. Tags and fused reporters may be left off the sequences shown. One block for each binder: values may come before it.
Tests used:
GST-σ^GN45A = biological target: T1, GST-σ^GN45A (Bacillus subtilis, UniProt P19940 1-260, N45A); assay: pull-down; GST or GST-σ^G fusions on glutathione Sepharose beads; soluble extract of B. subtilis AH6608 (CsfB-GFP) 2 h after the onset of sporulation; 30 min at room temperature; washed three times in 200 mM NaCl, 10 mM Tris-HCl pH 8.0, 10% glycerol; immunoblot with anti-GFP and anti-SpoIIAB; densitometry, average of three experiments; only the target purified
T1 construct: RNA polymerase sigma-G factor of Bacillus subtilis; coding region of sigGN45A amplified from pJS4 and cloned into pGex4T-3; not shown: GST, N-terminal, kept
T1 sequence (looked up): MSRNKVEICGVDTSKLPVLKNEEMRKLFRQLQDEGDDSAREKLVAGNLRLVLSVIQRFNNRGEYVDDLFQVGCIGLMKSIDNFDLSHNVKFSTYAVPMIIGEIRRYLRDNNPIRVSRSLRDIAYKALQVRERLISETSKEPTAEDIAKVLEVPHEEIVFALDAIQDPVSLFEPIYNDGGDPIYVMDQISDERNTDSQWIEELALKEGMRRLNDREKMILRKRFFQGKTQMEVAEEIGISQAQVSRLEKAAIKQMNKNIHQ

[1] = biological target: T2, GST-σ^GN45E (Bacillus subtilis) (UniProt P19940); assay: as above
T2 sequence: T1 sequence (looked up) with A45E

GST-σ^G = biological target: T3, GST-σ^G (Bacillus subtilis, UniProt P19940 1-260); assay: as above
T3 construct: RNA polymerase sigma-G factor of Bacillus subtilis; coding region of sigG amplified with primers sigG2016D and sigG2964R from pMS45 and cloned into pGex4T-3; also called GST-σ^Gwt; GST-σ^G fusion protein (wt); not shown: GST, N-terminal, kept
T3 sequence (looked up): T1 sequence (looked up) with A45N

[2] = biological target: T4, σ^G fused to the GAL4 binding domain (Bacillus subtilis) (UniProt P19940); assay: two-hybrid; GAL4-based yeast two-hybrid; CsfB fused to the activation domain (pACT2), sigma factors fused to the binding domain (pAS2-1); lacZ reporter, colony lift with X-Gal and liquid assay with ONPG
T4 sequence: T1 sequence (looked up) with A45N

[3] = biological target: T5, σ^FE39N fused to the GAL4 binding domain (Bacillus subtilis) (UniProt P07860); assay: as above
T5 sequence: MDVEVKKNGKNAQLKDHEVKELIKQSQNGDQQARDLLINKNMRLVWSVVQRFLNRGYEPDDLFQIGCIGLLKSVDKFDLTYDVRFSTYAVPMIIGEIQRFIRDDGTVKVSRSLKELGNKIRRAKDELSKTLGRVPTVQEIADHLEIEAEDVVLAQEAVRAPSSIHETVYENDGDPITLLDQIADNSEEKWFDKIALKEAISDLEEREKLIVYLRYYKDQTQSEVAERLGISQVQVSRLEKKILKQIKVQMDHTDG

[4] = biological target: T6, σ^GN45A fused to the GAL4 binding domain (Bacillus subtilis) (UniProt P19940); assay: as above
T6 sequence: T1 sequence (looked up)

[5] = biological target: T7, σ^F fused to the GAL4 binding domain (Bacillus subtilis) (UniProt P07860); assay: as above
T7 sequence: T5 sequence with N39E

- binding (GST-σ^GN45A): binds
- binding [1]: binds
- binding (GST-σ^G): binds
B1: SpoIIAB (protein, UniProt P10728 1-146)
chain: MKNEMHLEFSALSQNESFARVTVASFIAQLDPTMDELTEIKTVVSEAVTNAIIHGYEENCEGKVYISVTLEDHVVYMTIRDEGLGITDLEEARQPLFTTKPELERSGMGFTIMENFMDDVSIDSSPEMGTTIRLTKHLSKSKALCN

- binding [2]: binds
- binding [3]: binds
- binding [4]: binds
- binding [5]: no binding
B2: CsfB fused to the GAL4 activation domain (protein, UniProt P37534 1-64)
chain: MDETVKLNHTCVICDQEKNRGIHLYTKFICLDCERKVISTSTSDPDYAFYVKKLKSIHTPPLYS

- binding (GST-σ^G): binds
B3: CsfB-GFP fusion (natural protein, Bacillus subtilis, UniProt P37534 1-64, looked up)
chain: B2 chain
notes: anti-sigma-G factor CsfB (Gin) of Bacillus subtilis, functional fusion to GFP; The construction of the csfB-gfp fusion stands in Text S1; source: B. subtilis AH6608 (csfB::km ΔsigG ΔamyE::csfB-gfp), soluble extract 2 h after the onset of sporulation in DSM

— publication PMC3174212, “A Negative Feedback Loop That Limits the Ectopic Activation of a Cell Type–Specific Sporulation Sigma Factor of Bacillus subtilis” (PLoS Genetics, 2011)
